Experimental data: the supplement of paper PMC10498489
The whole screen tested about 2,300 compounds, of which about 330 (14%) showed activity.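 The calls were made as follows: active = median modified Z-score above 1.96; inactive = 1.96 or below.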 This is a selection; strong and weak results do not stand in their true shares.

What follows are compounds tested on HepG2 Srxn1-GFP reporter cells (+30 nM CDDO-Me) (assay: Srxn1-GFP intensity median modified Z-score relative to plate median; higher = stronger NRF2 / oxidative stress reporter activation, active = hit call of the paper). Settings: 10 µM; exposure time: 24h.
Summary of the method: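 Values give the median, over replicates, of the modified Z-score of GFP intensity on each plate. HepG2 Srxn1-GFP BAC reporter cells were co-treated for 24 h with an NRF2 activator at 30 nM and compound at 10 μM (≤0.1% DMSO) in three replicate plates, then analysed per cell for cytoplasmic GFP on confocal images with at least 100 cells. Scaling used 1.4826 × median absolute deviation.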

Structure (SMILES) | Srxn1-GFP intensity median modified Z-score
N#CCC(=O)NN [euspeclibcmpd1098] | active: 3.08
CC12CCC(=O)N1C(C(=O)NCCCNS(C)(=O)=O)CS2 (stereo not given) | active: 2.02
CC(N)CCCC(C)(C)O (stereo not given) [euspeclibcmpd1127] | inactive: 0.138
Cc1cc(O)cc(C)c1Cl [euspeclibcmpd58] | inactive: 0.6
Oc1cccc(O)c1 [euspeclibcmpd262] | active: 13.8
O=C(O)C=Cc1ccc(O)c(O)c1 [euspeclibcmpd1336] | inactive: -0.408
CC(C)N=C(N)N=C(N)Nc1ccc(Cl)cc1 [euspeclibcmpd665] | inactive: -0.77
CC1CC(OC(=O)c2ccccc2O)CC(C)(C)C1 (stereo not given) [euspeclibcmpd580] | inactive: 0.199
CC1(C)C(=O)C2C[C@@]3(O)C4=CC(=O)O[C@@H](c5ccoc5)[C@]4(C)CCC3[C@](C)(C2=O)[C@H]1CC(=O)O (stereo not given in full) [euspeclibcmpd1558] | inactive: -0.051
CC[C@@]1(O)CC(=O)c2c(cc3c(O)c4c(O)ccc(O)c4c(O)c3c2O)C1C(=O)OC (stereo not given in full) [euspeclibcmpd1470] | active: 70.7
O=c1[nH]c(=O)n([C@H]2C[C@H](O)C(CO)O2)cc1I (stereo not given in full) [euspeclibcmpd2208] | inactive: 0
CCC1CS/C(=N\c2ccc(Cl)c(Cl)c2)N1C(=O)CC1CC2CCC1C2 (stereo not given) | inactive: 1.31
C[N+](C)(C)CC(=O)O [euspeclibcmpd512] | inactive: 0.105
OCCN(CCO)c1nc(N2CCCCC2)c2nc(N(CCO)CCO)nc(N3CCCCC3)c2n1 [euspeclibcmpd102] | inactive: -0.597
CCN(CC)CCNC(C(=O)OCCC(C)C)c1ccccc1 (stereo not given) [euspeclibcmpd1224] | inactive: 0.369
Cc1c(-c2cnccn2)ssc1=S [euspeclibcmpd1085] | inactive: -0.63
CC(=O)NS(=O)(=O)c1ccc(N)cc1 [euspeclibcmpd273] | inactive: -0.608
Cc1cn([C@H]2C=C[C@@H](CO)O2)c(=O)[nH]c1=O [euspeclibcmpd472] | inactive: -0.536
CN1C(CCl)Nc2cc(Cl)c(S(N)(=O)=O)cc2S1(=O)=O (stereo not given) [euspeclibcmpd880] | inactive: 0.45
OCc1ccccc1O[C@@H]1O[C@H](CO)[C@@H](O)[C@H](O)[C@H]1O [euspeclibcmpd447] | inactive: -0.273
Oc1ccc([C@H]2Oc3cc(O)cc(O)c3C[C@H]2O)cc1 [euspeclibcmpd1689] | inactive: 0.539
CC(=O)CC(c1ccccc1)c1c(O)c2ccccc2oc1=O (stereo not given) [euspeclibcmpd321] | active: 5.96
NS(=O)(=O)c1cc2c(cc1Cl)NC(C1CC3C=CC1C3)NS2(=O)=O (stereo not given) [euspeclibcmpd561] | inactive: 0.0854
O=C1NS(=O)(=O)c2ccccc21 [euspeclibcmpd2045] | inactive: -0.21
c1ccc2c(CC3=NCCN3)cccc2c1 [euspeclibcmpd204] | inactive: -0.697

Structure (SMILES) | Srxn1-GFP intensity median modified Z-score
CCN(CC)CC(=O)Nc1c(C)cccc1C [euspeclibcmpd339] | inactive: -0.436
COc1ccc(-c2coc3c(O)c(O)c(OC)cc3c2=O)cc1 [euspeclibcmpd1527] | inactive: -0.524
CS(=O)(=O)OCCCCOS(C)(=O)=O [euspeclibcmpd40] | inactive: 1.41
Cc1c(NC(=O)c2cccnc2)c(=O)n(-c2ccccc2)n1C [euspeclibcmpd1132] | inactive: -0.441
NS(=O)(=O)c1cc2c(cc1C(F)(F)F)NCNS2(=O)=O [euspeclibcmpd154] | inactive: -0.214
NC(=O)CCCCC1CCSS1 (stereo not given) [euspeclibcmpd1215] | inactive: -0.458
CC1CN(C(=O)CSc2nc3ccc(Br)cc3c3nc(=O)c(-c4ccccc4)nn23)CC(C)O1 (stereo not given) | active: 2.28
CCC1(C)OC(=O)N(C)C1=O (stereo not given) [euspeclibcmpd785] | inactive: -0.431
NCCCC[C@H](N)C(=O)O [euspeclibcmpd2466] | inactive: -0.424
Cc1cc(O)c2c(c1)C(=O)c1cccc(O)c1C2=O [euspeclibcmpd1712] | active: 4.5
COc1cc2c(N3CCN(C(=O)Nc4ccc(OC(C)C)cc4)CC3)ncnc2cc1OCCCN1CCCCC1 [euspeclibcmpd1281] | inactive: 0.619
CC(C(=O)O)c1ccc(-c2ccccc2)c(F)c1 (stereo not given) [euspeclibcmpd133] | inactive: -0.0224
O=c1ccc2cc(O)c(O)cc2o1 [euspeclibcmpd1998] | inactive: -0.574
C[C@H](CCC(=O)NCC(=O)O)[C@H]1CCC2C3C(C[C@H](O)[C@@]21C)[C@@]1(C)CC[C@@H](O)CC1C[C@H]3O (stereo not given in full) [euspeclibcmpd1671] | inactive: -0.257
Cc1cccc(C)c1NC(=O)C(C)N (stereo not given) [euspeclibcmpd2310] | inactive: -0.407
CN(C)C(=O)C(CCN1CCC(O)(c2ccc(Cl)cc2)CC1)(c1ccccc1)c1ccccc1 [euspeclibcmpd977] | inactive: -0.12
Nc1ccc(S(=O)(=O)N=c2cnc3ccccc3[nH]2)cc1 [euspeclibcmpd2157] | inactive: 0.000648
Cc1cc(C)[nH]c(=NS(=O)(=O)c2ccc(N)cc2)n1 [euspeclibcmpd276] | inactive: -0.664
CC[C@H]1OC(=O)C(C)[C@@H](O[C@H]2C[C@@](C)(OC)[C@@H](O)[C@H](C)O2)[C@H](C)[C@@H](O[C@@H]2O[C@H](C)C[C@H](N(C)C)[C@H]2O)[C@](C)(O)CC(C)C(=NOCOCCOC)C(C)[C@@H](O)[C@]1(C)O (stereo not given in full) [euspeclibcmpd567] | inactive: -0.00752
C=C(C)[C@@H]1CC[C@]2(CO)CC[C@]3(C)[C@H](CCC4[C@@]5(C)CC[C@H](O)C(C)(C)C5CC[C@]43C)C12 (stereo not given in full) [euspeclibcmpd1538] | active: 10.7
CC(=O)N1CCCC1C(=O)O (stereo not given) [euspeclibcmpd1747] | inactive: -0.236
COc1ccc(/C=C/C(=O)Nc2ccccc2C(=O)O)cc1OC [euspeclibcmpd564] | inactive: 0.903
CC(=O)OC1(C(C)=O)CCC2C3=CC(Cl)=C4CC(=O)C5CC5C4(C)C3CCC21C (stereo not given) [euspeclibcmpd1971] | inactive: -0.163
Cc1c(N(C)C)c(=O)n(-c2ccccc2)n1C [euspeclibcmpd1031] | inactive: -0.314
Oc1c(Cl)cc(Cl)c(Cl)c1Cc1c(O)c(Cl)cc(Cl)c1Cl [euspeclibcmpd146] | active: 44.1

Structure (SMILES) | Srxn1-GFP intensity median modified Z-score
C[C@@H]1CC[C@H]2C(C)(C)C3CC12CC[C@@]3(C)O (stereo not given in full) [euspeclibcmpd1468] | inactive: -0.304
Cc1cc(=O)[nH]c(=S)[nH]1 [euspeclibcmpd196] | inactive: 0
COc1ccccc1OCC(O)CO (stereo not given) [euspeclibcmpd142] | inactive: -0.122
Cc1cccc(C)c1OCC(C)N (stereo not given) [euspeclibcmpd637] | inactive: -0.792
COC(=O)C[C@H]1C(C)(C)[C@@H](O)C2CC3=C4C=C(OC)O[C@@H](c5ccoc5)[C@]4(C)CCC3[C@@]1(C)C2=O (stereo not given in full) [euspeclibcmpd1395] | inactive: 1.94
O=C(CCCCCCCC(=O)NCCO)NCCO [euspeclibcmpd1246] | inactive: 0.216
Oc1cc(O)c2c(c1)O[C@H](c1cc(O)c(O)c(O)c1)[C@H](O)C2 [euspeclibcmpd1320] | inactive: -0.555
CN(C(=O)C(Cl)Cl)c1ccc(OC(=O)c2ccco2)cc1 [euspeclibcmpd813] | inactive: 0.185
COc1cc(/C=C/C(N)=O)cc(OC)c1OC [euspeclibcmpd509] | inactive: 0.124
CC(C)(C#N)c1cc(Cn2cncn2)cc(C(C)(C)C#N)c1 [euspeclibcmpd453] | inactive: -0.25
CC(=O)O[C@]1(C)CC[C@@]23CC1C(C)(C)[C@@H]2CC[C@H]3C [euspeclibcmpd1510] | active: 3.58
Oc1c(I)cc(Cl)c2cccnc12 [euspeclibcmpd705] | active: 2.87
CN(C)CCOC(C)(c1ccccc1)c1ccccn1 (stereo not given) [euspeclibcmpd106] | inactive: -0.105
C=CCNC(N)=S [euspeclibcmpd1266] | inactive: -0.282
CC(=O)c1ccc2c(c1)N(CCCN(C)C)c1ccccc1S2 [euspeclibcmpd808] | inactive: -0.832
C[N+](C)(C)CCO [euspeclibcmpd2453] | inactive: 0.0198
C[N+](C)(C)CCO [euspeclibcmpd2447] | inactive: -0.414
CC(=O)NS(=O)(=O)c1ccc(NC(=O)c2ccccc2C(=O)O)cc1 [euspeclibcmpd1007] | inactive: -0.557
COC(=O)C[C@H]1C(C)(C)C2(O)OC34CC2C(=O)[C@]1(C)C3CC[C@]1(C)C4=CC(=O)O[C@H]1c1ccoc1 (stereo not given in full) [euspeclibcmpd1512] | inactive: -0.229
CC(=O)O[C@H]1CC2CCC3C(CC[C@@]4(C)C3C[C@H]([N+]3(C)CCCCC3)[C@@H]4OC(C)=O)[C@@]2(C)C[C@@H]1N1CCCCC1 (stereo not given in full) [euspeclibcmpd853] | inactive: -0.182
CC(S)C(=O)NCC(=O)O (stereo not given) [euspeclibcmpd1253] | inactive: -0.0566
COc1ccc(OC)c(C(O)CNC(=O)CN)c1 (stereo not given) [euspeclibcmpd558] | inactive: 0.451
CC=C(C1=CC(=O)C(OC)=CC1=O)c1ccc(OC)cc1 [euspeclibcmpd1441] | active: 5.77
CC(C)(C)NCC(O)COc1cccc2c1CCC(=O)N2 (stereo not given) [euspeclibcmpd864] | inactive: -0.0151
CC(=O)NCCCS(=O)(=O)O [euspeclibcmpd2115] | inactive: 0.202
